# Data published in the supplement of paper PMC8728848.
# This is one part of the list.
# B1: PV12658A-bvu-496-32-496 (Bacteroides vulgatus) (protein)
# chain: DLDGAITTPAAVELALNGIYYSLPGNGFNVIFPTVSGSFKAGTMWRQEIVSAGNAVYYSERMLPTLSFSDATEWDADYAVIKNANFLETACNRMSDGEFSGNRRAEVLGEIAYLRALAYFNILVRYCEFWDMNSEYGVVMRNEAPSVSNALKARSSVADSYQYILDQLEIAIEKAPDWKKLSQASKEAAKALKARVLLYAGKYTEAVAAVNDAIDTNSPLPEANYGDVFDKFSTTKEILFARVFDQKDATNTSTRQQCYGNSPTKKQGYWGPTNEYVELVGDDPRADAIFSKVDSLMDSRSSAVAYNLKSVKKLLNDANDMPVIFSRVSELYLIKAEALYRSGASISEAYAPIRKLRERAGAEIILPANNEELETAIFNEWMLELSFENWHEWFAMIRFAGYTEKPDFTRLLALNKTLREALEKEYEKSEAQGDNYYQRIIDRRIDAIPSSEISSNLECKQNPGY
# How the values were obtained:
# Test in all cases: glycan array binding signal (z-score within array); higher = stronger binding
# Conditions in all cases: glycan notation: IUPAC condensed, linker removed
# [1] = biological target: GlcNAc(b1-2)[GlcNAc(b1-6)]Man(a1-6)[GlcNAc(b1-4)][GlcNAc(b1-2)Man(a1-3)]Man(b1-4)GlcNAc(b1-4)GlcNAc
# How it was run: (§1)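 Glycan array data came from 3228 arrays in the Consortium for Functional Glycomics database, and only arrays with an available protein sequence were kept. Glycan names were put into IUPAC-condensed notation, and columns mapping to the same glycan were averaged. The binding signal is a within-array Z-score, averaged across arrays of one protein sequence run at different concentrations or buffers and across linkers. A negative Z-score can be read as non-binding.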
# GlcNAc(b1-3)Fuc = biological target: GlcNAc(b1-3)Fuc
# How it was run: as §1
# GlcNAc(b1-3)Gal = biological target: GlcNAc(b1-3)Gal
# How it was run: as §1
# [2] = biological target: GlcNAc(b1-3)Gal(b1-3)GalNAc
# How it was run: as §1
# GlcNAc(b1-3)Gal(b1-4)Glc = biological target: GlcNAc(b1-3)Gal(b1-4)Glc
# How it was run: as §1
# [3] = biological target: GlcNAc(b1-3)Gal(b1-4)GlcNAc
# How it was run: as §1
# [4] = biological target: GlcNAc(b1-3)Gal(b1-4)GlcNAc(b1-2)Man(a1-3)[GlcNAc(b1-3)Gal(b1-4)GlcNAc(b1-2)Man(a1-6)]Man(b1-4)GlcNAc(b1-4)GlcNAc
# How it was run: as §1
# [5] = biological target: GlcNAc(b1-3)Gal(b1-4)GlcNAc(b1-2)Man(a1-3)[GlcNAc(b1-3)Gal(b1-4)GlcNAc(b1-2)Man(a1-6)]Man(b1-4)GlcNAc(b1-4)[Fuc(a1-6)]GlcNAc
# How it was run: as §1
# [6] = biological target: GlcNAc(b1-3)Gal(b1-4)GlcNAc(b1-2)[GlcNAc(b1-3)Gal(b1-4)GlcNAc(b1-6)]Man(a1-6)[GlcNAc(b1-3)Gal(b1-4)GlcNAc(b1-2)Man(a1-3)]Man(b1-4)GlcNAc(b1-4)GlcNAc
# How it was run: as §1
# [7] = biological target: GlcNAc(b1-3)Gal(b1-4)GlcNAc(b1-3)Gal(b1-4)GlcNAc
# How it was run: as §1
# [8] = biological target: GlcNAc(b1-3)Gal(b1-4)GlcNAc(b1-3)Gal(b1-4)GlcNAc(b1-2)Man(a1-3)[GlcNAc(b1-3)Gal(b1-4)GlcNAc(b1-3)Gal(b1-4)GlcNAc(b1-2)Man(a1-6)]Man(b1-4)GlcNAc(b1-4)GlcNAc
# How it was run: as §1
# [9] = biological target: GlcNAc(b1-3)Gal(b1-4)GlcNAc(b1-3)Gal(b1-4)GlcNAc(b1-2)Man(a1-3)[GlcNAc(b1-3)Gal(b1-4)GlcNAc(b1-3)Gal(b1-4)GlcNAc(b1-2)Man(a1-6)]Man(b1-4)GlcNAc(b1-4)[Fuc(a1-6)]GlcNAc
# How it was run: as §1
# [10] = biological target: GlcNAc(b1-3)Gal(b1-4)GlcNAc(b1-3)Gal(b1-4)GlcNAc(b1-2)[GlcNAc(b1-3)Gal(b1-4)GlcNAc(b1-3)Gal(b1-4)GlcNAc(b1-6)]Man(a1-6)[GlcNAc(b1-3)Gal(b1-4)GlcNAc(b1-3)Gal(b1-4)GlcNAc(b1-2)Man(a1-3)]Man(b1-4)GlcNAc(b1-4)[Fuc(a1-6)]GlcNAc
# How it was run: as §1
# [11] = biological target: GlcNAc(b1-3)Gal(b1-4)GlcNAc(b1-3)Gal(b1-4)GlcNAc(b1-3)Gal(b1-4)GlcNAc(b1-2)Man(a1-3)[GlcNAc(b1-3)Gal(b1-4)GlcNAc(b1-3)Gal(b1-4)GlcNAc(b1-3)Gal(b1-4)GlcNAc(b1-2)Man(a1-6)]Man(b1-4)GlcNAc(b1-4)GlcNAc
# How it was run: as §1
# [12] = biological target: GlcNAc(b1-3)Gal(b1-4)GlcNAc(b1-3)Gal(b1-4)GlcNAc(b1-3)Gal(b1-4)GlcNAc(b1-2)Man(a1-3)[GlcNAc(b1-3)Gal(b1-4)GlcNAc(b1-3)Gal(b1-4)GlcNAc(b1-3)Gal(b1-4)GlcNAc(b1-2)Man(a1-6)]Man(b1-4)GlcNAc(b1-4)[Fuc(a1-6)]GlcNAc
# How it was run: as §1
# [13] = biological target: GlcNAc(b1-3)Gal(b1-4)GlcNAc(b1-3)Gal(b1-4)GlcNAc(b1-3)Gal(b1-4)GlcNAc(b1-2)[GlcNAc(b1-3)Gal(b1-4)GlcNAc(b1-3)Gal(b1-4)GlcNAc(b1-3)Gal(b1-4)GlcNAc(b1-6)]Man(a1-6)[GlcNAc(b1-3)Gal(b1-4)GlcNAc(b1-3)Gal(b1-4)GlcNAc(b1-3)Gal(b1-4)GlcNAc(b1-2)Man(a1-3)]Man(b1-4)GlcNAc(b1-4)[Fuc(a1-6)]GlcNAc
# How it was run: as §1
# [14] = biological target: GlcNAc(b1-3)Gal(b1-4)GlcNAc(b1-3)Gal(b1-4)GlcNAc(b1-3)Gal(b1-4)GlcNAc(b1-3)Gal(b1-4)GlcNAc(b1-2)Man(a1-3)[GlcNAc(b1-3)Gal(b1-4)GlcNAc(b1-3)Gal(b1-4)GlcNAc(b1-3)Gal(b1-4)GlcNAc(b1-3)Gal(b1-4)GlcNAc(b1-2)Man(a1-6)]Man(b1-4)GlcNAc(b1-4)GlcNAc
# How it was run: as §1
# [15] = biological target: GlcNAc(b1-3)Gal(b1-4)GlcNAc(b1-3)Gal(b1-4)GlcNAc(b1-3)Gal(b1-4)GlcNAc(b1-3)Gal(b1-4)GlcNAc(b1-2)Man(a1-3)[GlcNAc(b1-3)Gal(b1-4)GlcNAc(b1-3)Gal(b1-4)GlcNAc(b1-3)Gal(b1-4)GlcNAc(b1-3)Gal(b1-4)GlcNAc(b1-2)Man(a1-6)]Man(b1-4)GlcNAc(b1-4)[Fuc(a1-6)]GlcNAc
# How it was run: as §1
# [16] = biological target: GlcNAc(b1-3)Gal(b1-4)GlcNAc(b1-3)Gal(b1-4)GlcNAc(b1-3)Gal(b1-4)GlcNAc(b1-3)Gal(b1-4)GlcNAc(b1-2)[GlcNAc(b1-3)Gal(b1-4)GlcNAc(b1-3)Gal(b1-4)GlcNAc(b1-3)Gal(b1-4)GlcNAc(b1-3)Gal(b1-4)GlcNAc(b1-6)]Man(a1-6)[GlcNAc(b1-3)Gal(b1-4)GlcNAc(b1-3)Gal(b1-4)GlcNAc(b1-3)Gal(b1-4)GlcNAc(b1-3)Gal(b1-4)GlcNAc(b1-2)Man(a1-3)]Man(b1-4)GlcNAc(b1-4)[Fuc(a1-6)]GlcNAc
# How it was run: as §1
binder,measurement,setting,value
B1,glycan array binding signal (z-score),[1],-0.218
same,glycan array binding signal (z-score),GlcNAc(b1-3)Fuc,-0.289
same,glycan array binding signal (z-score),GlcNAc(b1-3)Gal,-0.467
same,glycan array binding signal (z-score),[2],-0.315
same,glycan array binding signal (z-score),GlcNAc(b1-3)Gal(b1-4)Glc,-0.278
same,glycan array binding signal (z-score),[3],-0.437
same,glycan array binding signal (z-score),[4],0.145
same,glycan array binding signal (z-score),[5],-0.254
same,glycan array binding signal (z-score),[6],0.404
same,glycan array binding signal (z-score),[7],-0.488
same,glycan array binding signal (z-score),[8],0.43
same,glycan array binding signal (z-score),[9],0.127
same,glycan array binding signal (z-score),[10],-0.032
same,glycan array binding signal (z-score),[11],-0.287
same,glycan array binding signal (z-score),[12],0.056
same,glycan array binding signal (z-score),[13],-0.046
same,glycan array binding signal (z-score),[14],0.265
same,glycan array binding signal (z-score),[15],0.003
same,glycan array binding signal (z-score),[16],0.461
